# Assay results: the supplement of paper PMC11417369
# The list shows a part of the results.
# System: PfHDP1 homeodomain (GST-tagged)
# Test: gcPBM binding intensity (ln(normalized median fluorescence intensity)); higher = stronger DNA binding
# Method in brief: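 In this array assay, P. falciparum DNA-binding domains with a GST tag, expressed in E. coli, were applied for 1 h to primer-extended double-stranded 36-bp intergenic genomic probes and negative controls on an Agilent 4 × 180k array. Bound protein was visualised with Alexa488 anti-GST antibody at 488 nm. Binding intensity is the highest Masliner-normalised natural-log median intensity across replicate spots of either probe orientation.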
row,Sequence,gcPBM binding intensity (ln)
1,AAAACCTAGTGCATTTGTACATATTTCAATTTTAAA [XGTACX_site4582],8.64
2,TTTAAATACAGACATACACACATACACGCACATATA [CACACA_site6400],7.32
3,TATATTTTTATTGAACGTACAAAAAGTCGAAAACAG [XGTACX_site3967],6.66
4,AGGTAGAAATTGTTAAAAAATCATACATATTATATA [CACACA_negctrl_site622],6.01
5,GTTAATTCTATGAATTGTACTTAAATATAATTATAT [XGTACX_site2785],6.2
6,ATAAATACTAAAAATGAAATATAGAAAATAGCAATA [CACACA_negctrl_site501],6.72
7,TATAATATATTATATACACACATTATAAAATACCCA [CACACA_site4858],6.77
8,ACAGTTAAAACAATAACACACAAAGAAAAAAAAAAA [CACACA_site737],6.15
9,CAAAATAAAAATAACACACACATTTATATAAATACA [CACACA_site4790],6.79
10,AACAATAATTTTGAATGTACATATAAATATTTTTAT [XGTACX_site5501],6.4
11,ATATACATATAGGATGCACACATAATTCAAATACAA [CACACA_site8120],8.36
12,AAAAAAAAGAATAGCACACACACATATATAAATATA [CACACA_site630],6.92
13,TATAATGGTTCTGGTGTGCACCATGACAGAATCAAG,9.35
14,AATAATATTTAATACGCACACAATAATAATATAAAA [CACACA_site1763],7.35
15,GTGAAAGGAAAAGTTGAACACACAAAGTAAACTATA [CACACA_site9178],6.55
16,TCTTATAAAGGTAATTGTACATATTTATAATTTCTT [XGTACX_site4847],6.14
17,ATATATTATTATACATGTACATATATAGATATATAT [XGTACX_site4358],6.57
18,CACACGCACGAACACACACACATATAAATATAAATA [CACACA_site6299],7.8
19,TATATATATAATTAAAGTACATATAACCACAAAAAT [XGTACX_site7289],7.01
20,TAATATAATATATATACACACAAGAAATACAAAACG [CACACA_site1378],7.45
21,ACATAAATTTAATACACACACAAAGAAAAAAAAAAA [CACACA_site4088],6.52
22,ATATTATTATAATATACATATATATATATAATATAT [CACACA_negctrl_site480],6.41
23,AATAATAATAAATATACACACATCATACAATTAACA [CACACA_site3679],6.7

row,Sequence,gcPBM binding intensity (ln)
1,TATTTTTTTCTTACTACACACATATAGATGCTTTCC [CACACA_site7825],6.73
2,GGTCTTTTCAACACACGTACATAAAAATATTATACA [XGTACX_site5360],7.23
3,TAAACATATAGAGGGGTGCAAAGAATTGTAAAATTT,9
4,TATATATTGATATGCACACCTATGTATTGATGTATA [CACACA_site1073],10
5,ACATAAAATTGTTAAAAAATTGTATAAATAATACAT [XGTACX_negctrl_site557],5.98
6,GAAAAGCAGATAAATGTGCACATATATGTTTGTATA,10.8
7,TATAGGTATATATAAGTGCAATATATATGTATATAC [GTGCAC_site9427],9.51
8,TATTATTTTTTAAATTGTACAATAAATTATAAAAGG [XGTACX_site1162],6.39
9,CAGCTCTTAAAAATTACACACATATACTCATATATA [CACACA_site5757],6.55
10,TTATAAAAATAATATCGTACAAATGACATAGATGAA [XGTACX_site2570],6.6
11,AGATATTTTATAATTACACACATGAGGTTATTTGAA [CACACA_site1999],6.35
12,CATATACATAAACACACACACACATAAATAAATATA [CACACA_site4864],6.9
13,ACCTAAAAGGTATAATATATAAATAAAAAAAAAAAT [CACACA_negctrl_site134],6.51
14,TATTAATCTAATTCATAAAAAATGATCTATTTTGTT [CACACA_negctrl_site1035],6.03
15,AAAATGAACAGACACACACACATATTTATATTTATA [CACACA_site7182],6.65
16,TAGAATAATCTATAAACACACAAACACAACAAAAGA [CACACA_site7861],7.07
17,AACATTTGATAAGATACACACACAAGGAAAAAAATA [CACACA_site8004],7.01
18,TTTTTTTCTTTATTAGCACACATAATATTATATATG [CACACA_site8841],7.28
19,TATATCATTATATAAACACACAATATGTTTTTTATA [CACACA_site3781],6.13
20,TTAAGATATATAAAGAGTACACATAAGAGTAATGCT [XGTACX_site58],6.34
21,TATAATACATTATATTGTACTATATTATAATAAATT [XGTACX_site5934],6.23
22,ACAAATAAAAATATTACACACACTATTCTAGTGATA [CACACA_site6812],6.37
23,GACAAATTATTGTGTACACAATATTATTATATATAC [CACACA_site6020],7.47

row,Sequence,gcPBM binding intensity (ln)
1,CTTATGTTTTTTAAGTGTACATATTATACGTATTAT [XGTACX_site1176],6.8
2,TAAATATATATAATTACACACTTTTCTATAATATGA [CACACA_site711],6.5
3,ATATCGTGTGCATTAACACACATTTATTTGAATAAA [CACACA_site7162],9.51
4,GATATATAAATAGATACACACATACATACATACATA [CACACA_site6260],7.03
5,AAAAAAAAAAAAAAAACACACATAAATAGCTCAAAT [CACACA_site3973],6.69
6,CACATACCCATACAAACACACATTATATATATATAT [CACACA_site4965],8.96
7,TACGATTAAAAAAAATGTACAGATTTTTATAGAATA [XGTACX_site6561],6.17
8,ATATAATTACCATATGGTACACACATATATATATGT [XGTACX_site7393],7.23
9,TTTTGTAGCAAAAAATAGGAAAAAAAAAAATTAAAT [GTGCAC_negctrl_site8],6.59
10,ATATTACCCATATATGCACACATTGTAGTTATTTAT [CACACA_site2636],9.18
11,TTAAGATACAAAAAAGTGCATATTTTTTAACAAAAA,7.32
12,ATGTAGACATAATGGGGTACAAAAAAAAAAAAAAAA [XGTACX_site881],6.3
13,TATCATTTTGTATATAGTACATATATAAAATCGTTA [XGTACX_site3875],6.17
14,AAAAAAAATAAAAATAAAAATAAAAATAAAAATAAA [GTGCAC_negctrl_site437],6.45
15,AGTCATTAAATATAATGTACATGGAAAAACAGCTGA [XGTACX_site7944],6.77
16,GGAATATTTATACATACACACATATATTTATTTATA [CACACA_site6883],6.61
17,CAAGCACCCAGACACACACACACACCCACACCCACA [CACACA_site369],6.31
18,ATAAAAATAACATATAAACACACATATATATATATA [CACACA_site9267],9.12
19,AATATAAACATAGATAGATAAATAAATAAATAAACA [GTGCAC_negctrl_site567],6.42
20,AACAGATATATATGTAGTACATGTTCTAGATATTTT [XGTACX_site1208],6.48
21,AATAATTGTTAAAGGTGTACAATACGTATGTAAGAA [XGTACX_site1328],7.32
22,TTGTTCTTTTTTTTTTTATTTTTTAATTTGAAAAGA [CACACA_negctrl_site209],6.3
23,AAAAAGAAAAAACGAAGTACAATTATAAGATTATAT [XGTACX_site410],6.25

row,Sequence,gcPBM binding intensity (ln)
1,GTACAGATAAATATTACACACATTTTCATTTTTAAC [CACACA_site5140],6.67
2,TATGTGCCAAGACACACACACATATTTATATTTATA [CACACA_site6360],6.51
3,TATGAAAAATATCTTTGTACTTAGAAATATATACAC [XGTACX_site5393],6.25
4,ATTCTATATACACGCACACACACTTATATATATATA [CACACA_site3322],8.85
5,TTATTATTATATGAATGTACTTAAAAATACATTTTG [XGTACX_site2959],5.92
6,CCCTTTTCTAAATATTGTACGTATAAATTATATTAC [XGTACX_site7676],6.87
7,AAAAAAAAAAGAAACACACACATTTGTATTTAATAT [CACACA_site5184],6.52
8,GTGATTTAATTGTGTTGTACATATTTATAAATAAAA [XGTACX_site8966],6.67
9,ACACAATATATATATTGTACATACACATATTTACTA [XGTACX_site1872],6.71
10,TTTTTCTTGAATCGAAGTACTTAGGAGGGGATATTT [XGTACX_site2862],6.94
11,GAAATGTATATTTTTACATGCAAATAAAATATATAA [TGCATGCA_site439],6.57
12,CATACACATAGACACACACACATATATACCTATATA [CACACA_site6644],7
13,ATAACGACCTAGACGTGTACATACAAAGGAATGAAA [XGTACX_site4870],6.54
14,GAATATAAACATATTACACACATCTATAGGTACATT [CACACA_site6983],6.53
15,AGGACTAATATTTGAACACACATATAATATATACAT [CACACA_site3998],6.42
16,AATATATACATATATGTACACACATTACAGATGTAC [CACACA_site8227],6.67
17,ATAGAATCTGGTAGCTGTACGAGTCGTAGAGTGCAG [XGTACX_site2026],6.67
18,AAAAAAATATTATAATATATATATATATATATATAT [GTGCAC_negctrl_site399],9.33
19,AGAGATTATAAAATATGTACTAAATATTAAATCTTA [XGTACX_site7050],5.91
20,ATTTTTTAAAAAGTAACACACACTCTTATAAATAAC [CACACA_site7668],6.7
